Experimental data from PubChem BioAssay AID588855 (National Center for Advancing Translational Sciences (NCATS), 2011).
Several values for one entry are separate records, joined by “and”; a condition that tells them apart may be missing. Equal entries are not always repeated. Out of some 410,000 compounds screened, about 5,000 (1.2%) were called active. This list was built around the results that the source calls inconclusive (neither active nor inactive); the mix of calls is not that of the screen. Calls come from the whole dose curve; as a rule, active = well fitted inhibition curve with a large enough effect; inconclusive = small, poorly fitted or top-dose-only effect; inactive = no such curve, though single readings can be large or run the other way. Potencies of inconclusive entries are doubtful fits and often do not repeat.

Assay: qHTS for Inhibitors of TGF-b; note: nearly all actives have a fitted effect of over 65% in size
Conditions: HepG2 CAGA-GFP TGF-b/SMAD3 reporter, GFP fluorescence, 18 h, TGF-beta stimulated, 500 pg/mL final; series mostly up to 46.1 µM; activity, negative = inhibition: at the top concentration
Method in brief: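 HEPG2 CAGA-GFP cells (1000/well, DMEM with 1% FBS) were pre-incubated 2 h at 37 degrees C, given compound by pin tool, then stimulated with TGF-beta at 500 pg/mL final for 18 h before per-cell GFP fluorescence imaging.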
% is set by controls: 0 for no effect and ±100 for the full control effect; potency is the fitted concentration of half-maximal effect; tags give direction and shape of the fitted curve.

SMILES | Potency | activity, negative = inhibition
CCN(c1ccccc1)S(=O)(=O)c1ccc(Oc2ccc([N+](=O)[O-])cc2)nc1 | inconclusive: 35.5 µM [inhibitor, single point] | –
CCN1c2ccccc2S(=O)(=O)c2ccccc21 | – | inactive: 1.23%
COc1cc([N+](=O)[O-])ccc1NC(=S)NNC(=O)c1ccc2c(c1)OCO2 | inconclusive: 35.5 µM [inhibitor, single point] | –
COc1cc(C2C3=C(COC3=O)Oc3cc4c(cc32)OCO4)cc(OC)c1OC (stereo not drawn) | inconclusive: 447 nM [inhibitor, partial curve, poor fit] and inconclusive: 501 nM [inhibitor, full curve, poor fit] | –
COc1ccc(NS(=O)(=O)c2ccc3[nH]c4c(c3c2)CCCCCC4)cc1 | inconclusive: 15.8 µM [inhibitor, single point] | –
CC1CCC(C(C)C)C(OC(=O)Cn2c(-c3ccc(F)cc3)[n+](C)c3ccccc32)C1 (stereo not drawn) | active: 8.91 µM | –
CC(C)Oc1ccc(C(=O)Nc2ccc(Cl)c(S(=O)(=O)Nc3ccc(Cl)cc3)c2)cc1 | inconclusive: 12.6 µM [inhibitor, partial curve, poor fit] | –
O=c1oc2ccccc2c(Nc2ccc(Cl)cc2)c1[N+](=O)[O-] | inconclusive: 25.1 µM [inhibitor, single point] | –
CC(C)CCCCCCCCCCCCC(=O)NCC(=O)NC1C(O)C(O)C(Nc2ncnc3nc[nH]c23)OC1C(O)CO (stereo not drawn) | inconclusive: 0.0891 µM [inhibitor, full curve, poor fit] | –
COc1ccc(CCNC(=O)c2ccc([N+](=O)[O-])cc2Cl)cc1OC | – | inactive: 8.2%
COc1cccc(OCc2nc3ccccc3n2CCOc2cccc(C)c2)c1 | inconclusive: 14.1 µM [inhibitor, partial curve, poor fit] | –
Cc1ccc(F)cc1NC(=O)N1CCN(C2c3ccccc3-c3ccccc32)CC1 | inconclusive: 11.2 µM [inhibitor, partial curve, poor fit] | –
COc1cc(N(C)C)c(OC)cc1C=O | – | inactive: -8.18%
Cc1cccc(CS(=O)(=O)c2ncc(Cl)c(C(=O)NCc3ccccc3)n2)c1 | active: 3.16 µM | –
Cc1ccc(NC(=O)C2CCCN2S(=O)(=O)c2cccc3cccnc23)cc1C (stereo not drawn) | inconclusive: 11.2 µM [inhibitor, partial curve, poor fit] | –
NC[C@H]1O[C@@H](n2ccc(N)nc2=O)[C@H](O)[C@@H]1O | – | inactive: -11.8%
COc1cc(OC)c(CN2CCC(CO)(CCOc3ccccc3)CC2)c(OC)c1 | – | inactive: -11.4%
CNC(=O)c1ccc(NC(=O)CCNC(=O)Nc2ccccc2)cc1 | – | inactive: -18.1%
CC1=NC(=O)C(N=Nc2ccccc2C(=O)O)N1c1ccccc1 (stereo not drawn) | – | inactive: -19.2%
Cc1cc2ncn(C3CC(=O)N(Cc4ccccc4)C3=O)c2cc1C (stereo not drawn) | – | inactive: 16.9%
CCN1C(Nc2ccccc2)=NC[C@@H]1Cc1ccccc1 | inconclusive: 3.16 µM [inhibitor, partial curve, poor fit] | –
CC(/C=C/c1cccc([N+](=O)[O-])c1)=N/NC(=O)c1cccnc1 | inconclusive: 6.31 µM [inhibitor, single point] | –

SMILES | Potency | activity, negative = inhibition
Cc1coc2cc3oc(=O)c(Cc4ccccc4)c(C)c3cc12 | – | inactive: 0.576%
CC(C)N=C(NS(=O)(=O)c1ccccc1)C(Cl)(Cl)Cl | inconclusive: 35.5 µM [inhibitor, single point] | –
CCN(CC)S(=O)(=O)c1cccc(-c2cn3cc(C)ccc3n2)c1 | inconclusive: 2.51 µM [inhibitor, full curve] | –
O=S(=O)(N/N=C\c1cccn1-c1ccccc1)c1ccc2ccccc2c1 | inconclusive: 22.4 µM [inhibitor, single point] | –
CN(Cc1ccccc1)C(=O)c1ccc2nc([C@@H]3O[C@H](CO)[C@H](O)[C@H](O)[C@H]3O)[nH]c2c1 | – | inactive: -5.69%
COc1ccc(S(=O)(=O)NCCCn2ccnc2)cc1C(C)(C)C | inconclusive: 3.98 µM [inhibitor, single point] | –
Cc1c(CCOC(=O)C23CC4CC(CC(C)(C4)C2)C3)sc[n+]1Cc1ccccc1 | inconclusive: 35.5 µM [inhibitor, single point] | –
COc1ccc(Cn2c(SC)nc3ccccc32)cc1[N+](=O)[O-] | inconclusive: 5.01 µM [inhibitor, partial curve, poor fit] | –
CCCC(=O)N1CCN(c2ccc(NC(=O)c3ccc([N+](=O)[O-])o3)cc2)CC1 | inconclusive: 7.08 µM [inhibitor, partial curve, poor fit] | –
Cc1ccccc1CS(=O)(=O)Cc1ccc(C(=O)NCc2ccc(F)cc2)o1 | – | inactive: -12.1%
CCCCn1c(CN(C)Cc2ccccc2)nc2c1c(=O)n(C)c(=O)n2C | inconclusive: 8.91 µM [inhibitor, partial curve] | –
CCOc1ccccc1C(=O)NN1C(=O)CCC1=O | – | inactive: -0.666%
OC(c1ccc(F)cc1)c1nc(-c2cccc(C(F)(F)F)c2)cs1 (stereo not drawn) | inconclusive: 22.4 µM [inhibitor, single point] | –
CC(=O)Nc1cccc(NC(C)=C(C#N)C#N)c1 | inconclusive: 5.01 µM [inhibitor, single point] | –
CCN(CC)C(=O)NC(c1ccc(C)c(F)c1)C(Cl)(Cl)Cl (stereo not drawn) | inconclusive: 35.5 µM [inhibitor, single point] | –
CC1C(=O)C(C)C(c2cc(Br)ccc2O)NC1c1cc(Br)ccc1O (stereo not drawn) | active: 15.8 µM | –
O=C(C[C@H]1C(=O)N(CCc2ccccc2)C[C@@H]1Cc1ccccc1)Nc1ccccc1 | active: 11.2 µM | –
CCOc1ccc(CCNC(=O)c2ccc(F)c(S(=O)(=O)N3CCOCC3)c2)cc1OCC | inconclusive: 3.55 µM [inhibitor, single point] | –
O=C(CSc1nnc(Nc2ccccc2F)s1)Nc1cccc(S(=O)(=O)N2CCCCC2)c1 | inconclusive: 35.5 µM [inhibitor, single point] | –
COc1c(C(C)C)oc2cc3oc(=O)ccc3cc12 | inconclusive: 1.41 µM [inhibitor, full curve] | –
Cc1cc(/C=N/NC(N)=S)c(C)n1-c1ccc(Cl)c(Cl)c1 | inconclusive: 7.94 µM [inhibitor, partial curve, poor fit] | –
